From ChEMBL document CHEMBL4888484, “Replenishing the malaria drug discovery pipeline: Screening and hit evaluation of the MMV Hit Generation Library 1 (HGL1) against asexual blood stage Plasmodium falciparum ,using a nano luciferase reporter read-out” (2022) come the findings set out here.

The structures appear in SMILES notation. In all, about 150,000 compounds went through this assay and about 540 (0.36%) showed an effect of 50% or more. This is one part of the list.

This assay concerns Plasmodium falciparum. Description: Primary screen in NF54 nanoGlo assay, in single point, at 2uM, 72h; a lower Z score goes with more inhibition. The format is functional, Erythrocyte. The note with it: timepoint 72 hour.
In the case of `O=C1NCCC1N1C[C@@H]2C[C@H]1CN2Cc1ccccc1` (stereo partly specified), the “% Inhibition” value worked out at 4% and the Z score is -0.63.
For the compound `Cc1nc(-c2ccc(C(=O)N3CCN(c4cccc(C)c4C)CC3)cc2)cs1`, the “% Inhibition” value is reported as 0% and the Z score turned out to be 0.04.
On the same counts, the results for `COc1cc2c(cc1OC)CC(=O)N(CC(=O)N1CCc3nc[nH]c3C1)C=C2` are -9% and 1.17.
On the same counts, the results for `Cc1ccccc1OC1(C(=O)O)CCN(c2ncnc3[nH]cnc23)CC1` are -8% and 0.98.
`Cc1cnn(CC(=O)N(C)C[C@H]2COCCO2)c1`: the “% Inhibition” value is listed as 5% and the Z score is reported as -0.45.
Taken in the same sequence, the figures for `CCS(=O)(=O)N1CCN(C[C@]2(c3cccc(F)c3)CCOC2)CC1` were 2% and -0.23.
Taken in the same sequence, the figures for `COC(=O)Nc1ccc(NC(=O)CCC(=O)OC(C)(C)C)cc1` were -14% and 1.29.
On the same counts, the results for `CCCS(=O)(=O)NC[C@H](C)NCc1csc(CC)n1` are -5% and 0.94.
As for `CCCN(CC(=O)N(CCc1ccccc1)Cc1ccco1)S(=O)(=O)CC`, the “% Inhibition” value is on record as -8% and the Z score is 0.9.
On the same counts, the results for `CCC(CC)C(=O)NCc1ccccc1OC` are -21% and 2.76.
Taken in the same sequence, the figures for `COc1c(Br)cccc1C(=O)NCc1cc(C)nc(C)c1` were 9% and -1.63.
On the same counts, the results for `CC(=O)N1CCN(CC(N)=NOCc2ccc(Cl)cc2)CC1` are -1% and 0.16.
As for `CN(Cc1nncn1C)C(=O)Cn1cnc2ccccc21`, the “% Inhibition” value is on record as -11% and the Z score came to 1.62.
Taken in the same sequence, the figures for `COc1cccc(OCCN2CCC(=O)N3CCC[C@H]23)c1` were 1% and -0.07.
On the same counts, the results for `CCNc1nccnc1N(C)C[C@H]1CCCN1C` are -14% and 2.64.
Taken in the same sequence, the figures for `Cn1nc(C(=O)N2CCC(N3CCC(Oc4ccccc4F)CC3)CC2)ccc1=O` were -16% and 2.02.
With `CCCc1cnc(NC(=O)C2OC(C)CC2C)s1` (stereo unspecified), the “% Inhibition” value is on record as 0% and the Z score is 0.02.
On the same counts, the results for `CCc1nc(C)c(C(=O)N2C[C@@H]3NC(=O)CN(C4CC4)C(=O)CCc4ccc(c(OC)c4)Oc4cccc(c4)CO[C@H]3C2)o1` are 6% and -0.76.
On the same counts, the results for `Clc1cnc(NCc2ccncc2)c(Br)c1` are -18% and 3.31.
On to `OCCc1csc(-c2cccc3c2CCO3)n1`, for which the “% Inhibition” value worked out at 4% and the Z score is -0.41.
Taken in the same sequence, the figures for `O=S(=O)(NCC#CCOc1ccc2c(c1)OCO2)c1cccnc1` were -10% and 1.31.
Take `O=S(=O)(Cc1ccccc1F)N1CC(c2nc(CCOCc3ccccc3)no2)C1`: the “% Inhibition” value is -7% and the Z score worked out at 0.84.
On the same counts, the results for `Cc1ccc(C(=O)N2CC3(C[C@@H](c4nnc(-c5ccccc5)o4)N(C)C3)C2)cn1` are -13% and 1.57.
With `O=C(N[C@H]1C[C@H](c2nnc(CO)n2C2CC2)C1)c1ccc(F)cc1Cl`, the “% Inhibition” value was -5% and the Z score came out at 0.91.
Taken in the same sequence, the figures for `COc1ccccc1-c1nnc([C@H]2CCN(Cc3ccc(C(=O)O)cc3)C2)o1` were -3% and 0.38.
In the case of `CCN(C[C@H](C)C(=O)OC)S(=O)(=O)c1ccc(C#N)cc1`, the “% Inhibition” value was -7% and the Z score was found to be 0.96.
On the same counts, the results for `Cc1ccc(C)n1NC(=O)c1cccs1` are 0% and -0.05.
On the same counts, the results for `O=C(NCCc1nc(C2CC2)cc(C(F)(F)F)n1)c1ccsc1` are -1% and 0.14.
Regarding `C[C@H](NC(=O)c1ccsc1)c1ccccn1`, the “% Inhibition” value is on record as 13% and the Z score is reported as -1.76.
Taken in the same sequence, the figures for `CC(C)[C@H](CN(C)Cc1ccccc1)NCCC(=O)N1CCOCC1` were -5% and 0.7.
Taken in the same sequence, the figures for `COCCNc1nc2nonc2nc1N1CCC[C@H]1c1ccccc1OC` were -13% and 1.63.
Taken in the same sequence, the figures for `CC(C)c1cc(CNS(=O)(=O)N2CCCC2)no1` were 3% and -0.4.
`C[C@@H](CNC(=O)c1cccnc1O)N1CCOCC1`: the “% Inhibition” value was -4% and the Z score is 0.58.
On the same counts, the results for `CCCC[C@@H](COC)NC(=O)C(=O)Nc1cc(C)ccc1F` are -18% and 1.62.
With `Cc1noc(C[C@H]2CCCN(S(=O)(=O)CC34CCC(CC3)C4)C2)n1`, the “% Inhibition” value is given as -17% and the Z score amounted to 2.37.
For the compound `O=C(c1ccc(N2CCCC2=O)cc1)N1CCC[C@H](n2cccn2)C1`, the “% Inhibition” value was -11% and the Z score was determined as 1.52.
On to `CN(C(=O)c1c2c(nn1C)CCC2)c1cccc(S(C)(=O)=O)c1`, for which the “% Inhibition” value is -7% and the Z score came to 1.44.
Taken in the same sequence, the figures for `CCn1nc(-c2ccc(C(N)=O)cc2)nc1N(C)C` were -22% and 1.92.
On the same counts, the results for `CCOC(=O)N1CCC(S(=O)(=O)Oc2ccc(F)c(F)c2)CC1` are -2% and 0.23.
Taken in the same sequence, the figures for `CCOC(=O)c1nc(-c2cccc(N)c2)n(C)c1C` were -5% and 0.78.
For the compound `Cc1cc(CNC(=O)Cn2ncn(C)c2=O)ccn1`, the “% Inhibition” value is reported as -17% and the Z score was determined as 1.97.
Taken in the same sequence, the figures for `Cc1cnc(N2CCc3[nH]nc(C(C)C)c3C2)nc1N(C)C` were -1% and 0.07.
Regarding `O=C(NC1CCN(Cc2ccccc2)CC1)c1ccoc1`, the “% Inhibition” value is recorded as -4% and the Z score is 0.58.
